Here are results for 22 molecules from PubChem BioAssay AID1346428 (National Center for Advancing Translational Sciences (NCATS), 2018).

Screen size: about 48,000 compounds; about 1,200 (2.5%) were called active. About 2% were inconclusive and are not listed.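 How the source made its calls: active means activation of at least 60% and not above a set upper limit (about 1 call in 100 departs from these limits); inconclusive means activation of 40% to 60%, or above that upper limit; inactive means activation under 40%.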 The list shows a part of the results.

UniProt O75388, sequence (O75388 whole entry, looked up): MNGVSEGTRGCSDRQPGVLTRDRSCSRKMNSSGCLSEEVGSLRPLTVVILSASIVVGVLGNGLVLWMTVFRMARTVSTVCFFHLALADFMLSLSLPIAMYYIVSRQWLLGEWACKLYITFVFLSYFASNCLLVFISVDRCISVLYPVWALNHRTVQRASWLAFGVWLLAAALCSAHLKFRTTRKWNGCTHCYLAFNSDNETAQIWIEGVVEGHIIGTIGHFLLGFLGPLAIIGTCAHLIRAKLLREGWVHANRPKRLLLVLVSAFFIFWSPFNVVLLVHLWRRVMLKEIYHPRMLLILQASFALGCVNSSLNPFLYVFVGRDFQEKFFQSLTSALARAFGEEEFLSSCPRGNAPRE

For the experiment, the target named is Probable G-protein coupled receptor 32 (Homo sapiens) (UniProt O75388). The experiment is described as follows: qHTS for Agonists of Human Resolvin D1 Receptor DRV1. To be noted: CHO-K1 GPR32 beta-arrestin PathHunter luminescence, 90 min; at 76.9 µM; stronger effect = higher value; zero percent set by DMSO-only wells. An excerpt:
Endogenous resolution of inflammation is known to be transduced through various GPCRs and their natural mediators of lipid nature. Resolvin D1 (RvD1) is one of the active players in resolution of acute inflammation through regulation of anti-inflammatory pathways; it is known to enhance phagocytosis of human macrophages, limits neutrophils infiltration, etc. […] The search for GPR32-activating small molecules with anti-inflammatory effects similar to its natural omega-3 derivative ligand in order to use them as research tools for further studies of inflammation and its resolution was the goal of this screening project. For primary screening assay, we used CHO-K1 GPR32 beta-arrestin cell line (DiscoveRx, #93-0321C2A) and the PathHunter(R) beta-Arrestin Assay (DiscoveRx) which measures recruitment of beta-arrestin to the GPR32 and generates chemiluminescent signal. These engineered cells stably transfected with GPR32 co-express GPR32-fused small 42-amino acid fragment of beta-Gal called ProLinktrade mark, and […] -tagged beta-Arrestin fusion protein. When GPR32 is activated by a ligand, it stimulates binding of beta -Arrestin to ProLink-tagged GPR32, and two parts of beta-Gal complement forming a functional enzyme. Upon substrate (PathHunter(R) Detection reagent) addition, beta-Gal hydrolyzes it and generates a chemiluminescent signal.
The cells were thawed and plated in thawing media containing F-12 HAM (Invitrogen, #11765-054), 10% FBS (Invitrogen, #10082), 1x Glutamine, and 1x Pen/Strep onto the 175-mm flask for 24 hours. Then, thawing media was replaced with Growth media which contains 800microg/mL Geneticin (Invitrogen, #10131) and 300microg/mL Hygromycin B (Invitrogen, #10687) in addition to described above. For the assay, the cells were harvested at ~80% confluent stage with Cell Dissociation buffer (Gibco, #13151), and seeded at 2,500 cells/ 3microL/well in assay media (PathHunter(R) Cell Plating Reagent, DiscoverX, #93-0563R1B) using MultiDrop Combi dispenser (Thermo Scientific, Logan, UT) onto white solid bottom tissue culture-treated 1536-well plates (Greiner # 789173-F) and allowed to attach overnight at 37 degrees C, 95% humidity, 5% CO2, . Next, 23nL/well of compound solutions in DMSO were added with a Pin Tool (Kalypsis, San Diego, CA) to the assay plates. As the basal control (EC0), 23 nL/well of DMSO was used on each plate. The cells were incubated in the presence of compounds or DMSO for 90 minutes at 37 degrees C, 5% CO2. Subsequently, 1.5microL/well of PathHunter(R) Detection Reagent prepared per the manufacturer's instructions was added to the assay plates with BioRAPTR FRDtrade mark dispenser (Beckman Coulter, San Francisco, CA) and incubated for 1 hour at ambient temperature prior to the measurement of the luminescent signal on ViewLux(R) uHTS Microplate Imager (Perkin Elmer, Waltham, MA).
For orientation: Quantitative high-throughput screening tests each substance at several concentrations.
Consider `CC(C)Oc1ccc(C(=O)N2CCN(c3nc4c(F)cc(F)cc4s3)CC2)cc1`, for which the activation is inactive: -1.63%.

For `O=c1c(N2CCN(c3ccccc3)CC2)csc2ccc(Cl)cc12`, the activation was inactive: -40.4%.

Take `O=C(CCSCc1cccc(Cl)c1)NCc1ccccc1Cl`: the activation is inactive: -14.5%.

On to `O=C(CSc1ncc2c(n1)-c1cc(Cl)ccc1N(Cc1ccccc1)S2(=O)=O)Nc1ccc(F)cc1F`, for which the activation was inactive: 0.997%.

As to `CCOCCn1ccc2c(OCC(=O)NCc3ccc(F)cc3)cccc2c1=O`, the activation was inactive: -11.2%.

As to `CCCCn1cc(S(=O)(=O)c2ccccc2)c(=O)c2cc(F)c(N3CCN(CCC)CC3)cc21`, the activation is inactive: 3.69%.

On to `CCN1c2ccccc2-n2cccc2C12CCN(C(=O)Nc1ccccc1Br)CC2`, for which the activation is inactive: -30.3%.

In the case of `COc1ccc(NCc2cc3cc4c(cc3n(CC(=O)Nc3cccc(F)c3)c2=O)OCO4)cc1`, the activation is inactive: -51.1%.

Take `Cc1ccc(Cl)cc1-n1c(CCC(=O)O)ccc1-c1cccs1`: the activation was inactive: -9.7%.

Consider `COc1cc(OC)c(NC(=O)Cn2c(=O)c(C(F)(F)F)nc3ccccc32)cc1Cl`, for which the activation was inactive: 21.7%.

As for `CCc1cccc(NC(=O)Cn2c(=O)n(-c3ccccc3C)c(=O)c3c2c2cc(C)ccc2n3C)c1`, the activation is inactive: 18.4%.

Regarding `COC(=O)c1ccc(CSc2nc3c([nH]c4ccccc43)c(=O)n2-c2ccc(F)cc2)o1`, the activation is inactive: 3.58%.

Consider `Clc1ccccc1N1CCN(Cc2nnc(-c3ccccc3)o2)CC1`, for which the activation is inactive: 30.6%.

Turning to `O=C(Cn1c(=O)n(-c2ccccc2)c(=O)c2ccc(C(=O)NCc3ccc4c(c3)OCO4)cc21)Nc1ccc(F)cc1`, the activation was inactive: -4.25%.

Regarding `COc1ccc(CCCc2nnc(SCC(=O)Nc3cccc(C)c3)o2)cc1C`, the activation was inactive: 15.8%.

For `CCCCc1nn2c(=O)cc(COC(=O)c3cccc(NC(=O)c4cccc(Cl)c4)c3)nc2s1`, the activation is inactive: -10.1%.

In the case of `Cc1ccccc1CN1CCc2nc(N3CCN(c4ncccn4)CC3)ncc2C1`, the activation was inactive: -17.3%.

With `CCCCN(C)CCCNC(=O)Cn1ncc2c3ccccc3n(Cc3cccc(Cl)c3)c2c1=O`, the activation was inactive: -13.1%.

In the case of `CCOc1ccccc1C(=O)Oc1c(S(=O)(=O)c2ccc(C)cc2)c(C)nn1-c1ccccc1`, the activation was inactive: 36.2%.

With `Cc1cccc(N2CCN(S(=O)(=O)c3cn(C)c(C)n3)CC2)c1C`, the activation was inactive: 18.2%.

As to `COc1cc(NC(=O)CSc2nc(-c3cccs3)cc(C(F)(F)F)n2)cc(OC)c1OC`, the activation was inactive: 1.26%.

For the molecule `COc1cccc(-n2c(SCC(=O)N3CCc4ccccc43)nc3c([nH]c4ccccc43)c2=O)c1`, the activation is inactive: -1.83%.
